# Experimental data reported in publication PMC4336329 (PLoS ONE, 2015).
# Out of some 310,000 compounds screened, about 2,200 (0.71%) showed an effect of 50% or more. Effects have a minus sign here. This is one part of the list.
# Target: human ether-à-go-go-related gene (hERG) potassium channel (human, UniProt Q12809)
# Assay: primary screen, population patch clamp on CHO cells stably expressing hERG
# Chain of human ether-à-go-go-related gene (hERG) potassium channel (Q12809 whole entry, looked up): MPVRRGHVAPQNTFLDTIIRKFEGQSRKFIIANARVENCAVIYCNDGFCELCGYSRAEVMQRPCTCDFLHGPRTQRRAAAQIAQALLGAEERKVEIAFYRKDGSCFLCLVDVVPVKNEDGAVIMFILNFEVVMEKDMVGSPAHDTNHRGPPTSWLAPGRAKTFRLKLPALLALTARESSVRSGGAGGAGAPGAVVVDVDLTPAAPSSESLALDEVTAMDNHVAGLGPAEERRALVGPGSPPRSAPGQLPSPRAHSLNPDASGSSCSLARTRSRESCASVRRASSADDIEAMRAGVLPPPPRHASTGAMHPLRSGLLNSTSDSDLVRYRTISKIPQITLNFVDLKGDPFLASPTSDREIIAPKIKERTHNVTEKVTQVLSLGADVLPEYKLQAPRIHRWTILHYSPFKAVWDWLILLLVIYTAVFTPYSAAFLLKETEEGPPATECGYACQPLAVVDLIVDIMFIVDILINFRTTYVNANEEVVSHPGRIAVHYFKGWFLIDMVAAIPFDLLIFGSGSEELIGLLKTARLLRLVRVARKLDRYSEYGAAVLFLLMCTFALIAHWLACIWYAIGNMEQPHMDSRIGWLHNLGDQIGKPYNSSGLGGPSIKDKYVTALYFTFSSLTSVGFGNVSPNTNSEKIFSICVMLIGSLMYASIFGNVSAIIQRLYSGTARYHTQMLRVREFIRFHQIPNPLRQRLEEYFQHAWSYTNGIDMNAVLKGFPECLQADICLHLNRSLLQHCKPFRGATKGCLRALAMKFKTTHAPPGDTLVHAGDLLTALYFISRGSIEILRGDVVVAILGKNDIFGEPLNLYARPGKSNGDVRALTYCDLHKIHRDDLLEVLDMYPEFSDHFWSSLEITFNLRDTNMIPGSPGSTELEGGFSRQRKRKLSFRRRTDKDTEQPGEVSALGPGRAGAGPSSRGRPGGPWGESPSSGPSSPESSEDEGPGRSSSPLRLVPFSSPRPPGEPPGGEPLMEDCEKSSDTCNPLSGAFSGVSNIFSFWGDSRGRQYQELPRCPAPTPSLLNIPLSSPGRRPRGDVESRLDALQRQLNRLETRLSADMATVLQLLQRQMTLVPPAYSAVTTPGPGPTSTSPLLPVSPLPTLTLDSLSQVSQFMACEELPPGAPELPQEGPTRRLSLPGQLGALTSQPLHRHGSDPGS
row,SMILES,"hERG current change (%, negative = inhibition) at 1uM [%]"
1,CN1CCc2nc(NC(=O)c3cccc(S(=O)(=O)N4CCc5ccccc54)c3)sc2C1,8.61
2,C=CCNC(=S)NNC(=O)COc1cccc(Cl)c1,-3.39
3,CCOC(=O)Cn1c(=O)c(-c2ccccc2NCc2ccccc2)nc2ccccc21,12.9
4,COc1ccc(CCN2C(=O)C3C4CC(C5C(C(=O)O)=NOC45)C3C2=O)cc1OC (centres unmarked),18.8
5,COc1ccccc1CNC(=O)COC(=O)c1sc(C)nc1C,-5.76
6,CCC(=O)Nc1cccc(C2=NOC3(C2)C[C@H](C(N)=O)N(C(=O)CC#N)C3)c1 (some centres unmarked),9.75
7,CCCCCn1nc(C(=O)N(CC(C)C)c2c(N)n(CCCC)c(=O)[nH]c2=O)c2ccccc2c1=O,0.587
8,COc1ccc2nc(NC(=O)C3CCN(C(=O)c4ccc(F)cc4)CC3)sc2c1,6.73
9,COCCN1C=C(C(=O)OC)C(c2ccc(OC)c(OC)c2)C(C(=O)OC)=C1,7.83
10,CC1CCN(S(=O)(=O)c2ccc(NC(=O)[C@@H]3CCCN3C(=O)c3cccs3)cc2)CC1,6.15
11,COC(=O)c1cc2occc2n1Cc1nc(-c2cccc(Cl)c2)oc1C,11.1
12,Cc1ccc(-c2ccc(C(=O)NCc3ccccc3)o2)c2ccccc12,5.47
13,CCC(C)c1ccc(NC(=O)c2cnn3c(C(F)F)cc(C)nc23)cc1 (centres unmarked),9.4
14,CC(C)OCC(O)CN (centres unmarked),4.04
15,COc1ccc(-c2n[nH]c(=S)nc2-c2ccc(OC)cc2)cc1,18.5
16,C=C(C)COc1ccc(-c2[nH]ncc2-c2ccccc2OC)c(O)c1,1.13
17,NNC(=O)C(=O)NCCCN1CCOCC1,17.4
18,CC(C)Oc1ccc(C2CCC(=O)NC2=O)cc1 (centres unmarked),10.8
19,CCOC(=O)c1cnc(-n2nc(C)cc2C)nc1Nc1ccc(O)cc1,14.2
20,Cc1cc(C(=O)N2CCN(c3ccc(C(F)(F)F)cn3)CC2)c(C)o1,2.84
21,COCCn1nnnc1C(c1ccccn1)N1CCN(c2cccc(C)c2C)CC1 (centres unmarked),0.646
22,COc1ccc(CCNC(=O)CSc2ccc(-c3cccs3)nn2)cc1OC,9.88
23,CC(=O)Nc1ccc(S(=O)(=O)Oc2ccc(Br)cc2C(=S)N2CCOCC2)cc1,11.4

row,SMILES,"hERG current change (%, negative = inhibition) at 1uM [%]"
1,COc1ccccc1CNC(=O)[C@H](C)N1C(=O)N2CCc3c([nH]c4ccccc34)[C@@]2(C)C1=O,-5.02
2,Cc1sc2ncnc(SCC(=O)NC(C)(C)C)c2c1C,12.4
3,Clc1ccc(OCc2nn3c(-c4ccncc4)nnc3s2)cc1,0.946
4,O=C(C1CCC1)N1CCc2cc(S(=O)(=O)NC3CCCC3)ccc21,9.5
5,Cc1cccc(NC(=O)COC(=O)COc2ccc3c(c2)CCC3)c1,11.7
6,CCOc1cccc(C(=O)NC(=S)NCc2cccnc2)c1,4.21
7,CCn1nnnc1SCC(=O)c1cc(OC)ccc1OC,-0.278
8,CC(=O)c1c(C)[nH]c(C(=O)N2CCN(c3ccc(F)cc3)CC2)c1C,-11.3
9,O=C1NC(=S)N/C1=C/c1cccc([N+](=O)[O-])c1,17
10,Cl.O=S(=O)(N1CCCCCC1)N1CCNCC1,15.2
11,COc1ccc(S(=O)(=O)N2CCCCC2)cc1NC(=O)c1ccc2ccccc2n1,7.73
12,CC1(C)CC(=O)C2=C(C1)Nc1cc(Cl)ccc1S2,9.13
13,Cc1ccc(Cn2ncc3c(N4CCN(c5ccc(C)cc5)CC4)ncnc32)cc1,11.9
14,CS(=O)(=O)Nc1ccc(C(=O)NCCSc2ccc(Cl)cc2)cc1,-5.83
15,O=C(COc1cccc2ccccc12)NNC(=O)c1cnccn1,8.78
16,Cn1c(=O)c2c(nc(N/N=C/c3ccc(OC(=O)c4ccco4)cc3)n2Cc2ccccc2Cl)n(C)c1=O,13.3
17,Cn1c(=O)[nH]c(=O)c2c1nc1n2CCS1,9.88
18,CCC(C)N1CC23C=CC(O2)C(C(=O)OCc2ccccc2)C3C1=O (centres unmarked),10.9
19,CN(CC(=O)Nc1ccccc1C(F)(F)F)C(=O)CCc1nc2ccccc2c(=O)[nH]1,6.23
20,CCOc1ccc2[nH]cc(S(=O)(=O)c3ccc(Cl)cc3)c(=O)c2c1,15.4
21,COc1ccc(-n2nnc3c(SCC(=O)NCc4ccco4)ncnc32)cc1,-1.66
22,CC(C)N1CCN(Cc2ccc(Oc3ncccn3)cc2)CC1CCO (centres unmarked),6.59
23,COc1cc(/C=N/NC(=O)COc2ccccc2C)ccc1OC(=O)c1cccs1,-2.96

row,SMILES,"hERG current change (%, negative = inhibition) at 1uM [%]"
1,C[C@]12CCC3[C@@H](CCC4=CC(=O)CC[C@@]43CO)C1CCC2=O (some centres unmarked),7.52
2,CCCCNC(=S)NNC(=O)c1ccco1,-9.48
3,Cc1cc(C)cc(OCC(=O)Nc2ccc(-n3cnnn3)cc2)c1,14.4
4,CCSc1nnc(NC(=O)COc2ccccc2[N+](=O)[O-])s1,10.6
5,CC(C)CC(OC(=O)c1cccs1)C(=O)NCC1CCCO1 (centres unmarked),7.4
6,CC(=O)CCC(=O)OCC(=O)Nc1ccc(SC(F)F)cc1,4.79
7,CN1C2CCC1CC(OC(=O)c1ccc([N+](=O)[O-])cc1)C2 (centres unmarked),-45.5
8,Cc1nn(C(C)C(=O)NCCCc2ccccc2)c(=O)c2nn(-c3ccccc3)c(C)c12 (centres unmarked),8.73
9,O=c1[nH]c(O)c(N=Nc2ccc([N+](=O)[O-])cc2)c(=O)[nH]1,13.8
10,Cc1noc(C)c1S(=O)(=O)N1Cc2ccccc2CC1C(=O)N(C)C (centres unmarked),-2.29
11,CCCn1c(SCC(=O)c2ccc(CC)cc2)n[nH]c1=O,13.5
12,Cc1cc(C)nc(N/N=C/c2ccc(Cl)cc2)n1,5.62
13,O=c1c2ccccc2nc(/C=C/c2ccc(O)cc2)n1-c1ccccc1O,8.68
14,O=C(Nc1cc(S(=O)(=O)N2CCCC2)ccc1Cl)C1=COCCO1,11.4
15,CC(O)C(O)C(O)C(O)C1NCCS1 (centres unmarked),8.04
16,O=C(CCN1C(=O)/C(=C/c2cccs2)SC1=S)Nc1ccccn1,18.3
17,Cn1c(CNc2ccc(F)cc2)nc2ccccc21,4.33
18,CCOc1ccc(C(O)(CCC(C)C)C(CN2CCOCC2)c2ccccc2)cc1.Cl (centres unmarked),14.4
19,O=C1C2C3C=CC(C4CC34)C2C(=O)N1c1cccc2ccccc12 (centres unmarked),5.09
20,Cc1cccc(NC(=O)c2ccc3c(c2)OCCO3)c1C,8.86
21,Cc1cc(C)c(C#N)c(Sc2ccccc2N)n1,15.6
22,NC(=O)COC(=O)CNC(=O)c1ccc(Cl)cc1,16.9
23,O=C1OCCN1C(=O)[C@H]1[C@H](c2ccc(Cl)cc2)C(c2cccc(Cl)c2)=NN1c1ccccc1,11.8

row,SMILES,"hERG current change (%, negative = inhibition) at 1uM [%]"
1,Cc1nc(C)c(C(=O)Nc2ccccc2-c2ccccc2)o1,-6.21
2,CCN(CC)c1ccc(N=Cc2c(O)n(-c3ccccc3)c(=O)[nH]c2=O)cc1,-9.51
3,COC(=O)C1=C[C@@H](C(=O)OC)C2C3=C(C(=O)C24CCCCC4)[C@H](C)n2c(=O)n(-c4ccccc4)c(=O)n2[C@@H]3C1 (some centres unmarked),6.19
4,COc1ccc(C2=NN(CCC(=O)NC3CCC(C)CC3)C(=O)CC2)cc1 (centres unmarked),16.8
5,CCCNC(=O)COc1ncnc2sc(C)c(C)c12,12.6
6,CCNC(=O)NC(=O)C(C)Oc1ccc(Br)cc1Br (centres unmarked),7.63
7,CCCC(C)C(=O)OCC(=O)Nc1c(Br)cc(C)cc1Br (centres unmarked),9.86
8,CCN(CC)C(=O)c1[nH]cnc1C(=O)NCCCCCNC(=O)OC(C)(C)C,10.6
9,CCn1cc(C(=O)O)c(=O)c2cc(F)c(N3CCN(C(=S)NC(=O)c4ccc(OC)cc4)CC3)cc21,14
10,Cc1ccc2nc(SC(C)C(=O)N3CCOCC3)[nH]c2c1 (centres unmarked),11.5
11,CCN(C(=O)c1cc2c(=O)n3cccc(C)c3nc2s1)C1CCCCC1,17.6
12,Cc1noc(C)c1C(=O)N1CCC2(CC1)OCCO2,25.3
13,CC(C)CNC(C(=O)Nc1ccc([N+](=O)[O-])cc1Br)c1ccccc1.O=C(O)C(=O)O (centres unmarked),5.4
14,O=S(=O)(CC(O)CS(=O)(=O)c1ccc(Cl)cc1)c1ccccc1 (centres unmarked),11.5
15,CCC(=O)N1CCc2cc(S(=O)(=O)NC(C(=O)N3CCN(c4ccc(F)cc4)CC3)C(C)C)ccc21 (centres unmarked),12.3
16,CN(c1cccc(NC(=O)c2ccccc2N(C)S(C)(=O)=O)c1)S(C)(=O)=O,13.2
17,Cc1noc(C)c1C(=O)NC(C)c1ccc2c(c1)OCO2 (centres unmarked),-6.53
18,COCCN1C(=O)c2ccccc2C(C(=O)NCC2CCCO2)C1c1c[nH]c2ccccc12 (centres unmarked),3.73
19,CSC1=C(C#N)C(c2cccc(Br)c2)CC(=O)N1 (centres unmarked),-4.2
20,CCc1nnc(NS(=O)(=O)c2ccc(NC(=S)NC(=O)c3ccncc3)cc2)s1,3.94
